# From PubChem BioAssay AID1345082 (National Center for Advancing Translational Sciences (NCATS), 2018)
# Out of some 94,000 compounds screened, about 4,000 (4.3%) were called active. Inconclusive results, whose numbers are uncertain, are shown with a selection of clear calls. Calls come from the whole dose curve; as a rule, active = well fitted inhibition curve with a large enough effect; inconclusive = small, poorly fitted or top-dose-only effect; inactive = no such curve, though single readings can be large or run the other way. Potencies of inconclusive entries are doubtful fits and often do not repeat.
# Test: Cytotoxic Profiling in NIH 3T3 Cell Line of Diverse Libraries Using Quantitative High-Throughput Screening; note: nearly all actives have a fitted effect of over 55% in size
# Settings: NIH 3T3 viability, CellTiter-Glo ATP luminescence, 48-72 h; series mostly up to 96.7 µM
# How it was run: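 NIH 3T3 cells at 400 cells/well received 23 nL of compound by pintool and were incubated 48 or 72 h at 37 °C. Viability was read as ATP-coupled CellTiter-Glo luminescence.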
# Potency is the fitted concentration of half-maximal effect; tags give direction and shape of the fitted curve.
row,Compound,Potency
1,CCNC(=O)C1C(c2cccc(NC(=O)Cc3ccccc3)c2)OC(=O)N1Cc1ccc(C)cc1 (stereo not drawn),inactive
2,O=C(c1ccc(F)cc1Cl)N1CCC2(CC1)NC(=O)N(c1ccccc1Cl)N2,"inconclusive: 44.7 µM [inhibitor, partial curve, poor fit]"
3,C[C@]1(CO)[C@H]2Cc3sc(NC(=O)c4ccnc(Cl)c4)nc3[C@@H](CC(=O)NCc3ccco3)[C@]2(C)CC[C@H]1O,"inconclusive: 56.2 µM [inhibitor, partial curve, poor fit]"
4,CC(=O)NC1(C)CCN(Cc2cccc(-c3cccc(Cl)c3)c2)C1 (stereo not drawn),"inconclusive: 56.2 µM [inhibitor, partial curve, poor fit]"
5,O=C(NCc1cccc(Cl)c1)c1ccc2nnc(C3CC3)n2c1,"inconclusive: 56.2 µM [inhibitor, partial curve, poor fit]"
6,O=C(Cc1c[nH]c2ncc(-c3ccccc3)cc12)NCc1cnccn1,"inconclusive: 79.4 µM [inhibitor, partial curve, poor fit]"
7,COc1ccccc1Nc1ccnc(N2CCC(N[S+](=O)([O-])c3ccc(C)cc3)CC2)n1,"inconclusive: 20 µM [inhibitor, full curve, poor fit]"
8,Cc1noc(-c2cccc(OC3CN(C(=O)Nc4ccccc4)C3)c2)n1,"inconclusive: 35.5 µM [inhibitor, partial curve, poor fit]"
9,c1ccc(-c2cn([C@H]3CO[C@H]4[C@@H]3OC[C@@H]4NCC3CCCCC3)nn2)nc1,"inconclusive: 63.1 µM [inhibitor, full curve]"
10,Cc1ccccc1-n1cc(-c2ccnc(NC(C)Cc3ccncc3)n2)cn1 (stereo not drawn),"inconclusive: 44.7 µM [inhibitor, partial curve]"
11,COc1ccc(C(=O)N[C@@H]2CN(Cc3ccncc3)C[C@H]2CN(C)C)c(OC)c1,inactive
12,COc1ccc(C(=O)N[C@@H]2C=C[C@@H](c3c(C)nn(-c4ccc(C(F)(F)F)cc4)c3C)C2)cc1,"inconclusive: 11.2 µM [inhibitor, full curve, poor fit]"
13,CC(C)CN1CCN(C2CCOC3(CCN(C(=O)Cc4cccc(F)c4)CC3)C2)CC1 (stereo not drawn),"inconclusive: 31.6 µM [inhibitor, partial curve, poor fit]"
14,COc1ccc(-c2cc(C(=O)NCc3cccc(C(F)(F)F)c3)c3cnn(C)c3n2)cc1,active: 31.6 µM
15,Cc1ccc(CN[C@@H]2CO[C@H](CNS(=O)(=O)c3ccc(C)cc3)[C@H]2O)cc1,"inconclusive: 56.2 µM [inhibitor, partial curve, poor fit]"
16,CCc1nc(N(C)Cc2nccn2Cc2ccccc2)c2cnn(C)c2n1,inactive
17,C=CCOc1c(OC)ccc2c1CN(C1CC1)C(=O)CCN2C[C@@H](O)COCc1ccccc1,"inconclusive: 79.4 µM [inhibitor, single point]"
18,O=C(Nc1ccccc1)O[C@@H]1CO[C@H]2[C@@H]1OC[C@@H]2NC(=O)C1CCC1,inactive
19,CCC1=C(C(=O)OC)C(c2ccc(C)cc2C)N2C(CC(=O)N3CCCCC3C)=CSC2=N1 (stereo not drawn),"inconclusive: 44.7 µM [inhibitor, partial curve, poor fit]"
20,Cc1cccc(CNC(=O)C2CC(c3ccc(F)c(C)c3)CN(C(=O)c3ccccc3)C2)c1 (stereo not drawn),active: 25.1 µM

row,Compound,Potency
1,CCc1ccc(CN2CCC(CNC(=O)c3ccc(C)nc3)C2)nc1 (stereo not drawn),"inconclusive: 50.1 µM [inhibitor, partial curve, poor fit]"
2,COC(=O)[C@@H]1Cc2c([nH]c3ccccc23)[C@H]2C[C@@H](NCc3cccnc3)C[C@@H](c3ccccc3)N21,"inconclusive: 28.2 µM [inhibitor, full curve, poor fit]"
3,C[C@@H](NC(=O)c1ccc(Cl)cc1)c1c(-c2ccc(F)cc2)noc1C(=O)O,"inconclusive: 100 µM [inhibitor, partial curve, poor fit]"
4,Cc1ccccc1C(=O)N1CCC2(CC1)NC(=O)N(c1ccccc1)N2,"inconclusive: 25.1 µM [inhibitor, full curve]"
5,Cc1ncsc1CN1CCC2(CC1)c1[nH]c3ccccc3c1CCN2C,"inconclusive: 20 µM [inhibitor, full curve, poor fit]"
6,C#CCNC(=O)C[C@@H]1c2nc(NC(=O)N3CCOCC3)sc2C[C@@H]2[C@](C)(CO)[C@H](O)CC[C@]21C,inactive
7,CC(C)[C@@H]1CN(C(=O)c2cc(N3CCCCC3)ccc2Cl)C[C@H]1N(C)C,"inconclusive: 56.2 µM [inhibitor, partial curve, poor fit]"
8,COc1ccc(C2(C(=O)N3CCN(C(=O)N4CC5CC(C4)[C@H]4CCCC(=O)N4C5)CC3)CC2)cc1 (stereo partly drawn),"inconclusive: 50.1 µM [inhibitor, partial curve, poor fit]"
9,Cc1nc(C)c(C(=O)N2CCC(N3C(=O)C4(CCCCC4)C3c3ccccc3)CC2)s1 (stereo not drawn),"inconclusive: 39.8 µM [inhibitor, partial curve, poor fit]"
10,COc1cccc(CC2(CO)CCCN(c3nnnn3-c3ccccc3)C2)c1 (stereo not drawn),"inconclusive: 11.2 µM [inhibitor, full curve]"
11,COCCc1nncn1C1CCN(S(=O)(=O)c2ccc(OC)cc2)CC1,inactive
12,CSCC(=O)N[C@H]1CCN2C(=O)N(c3cccc(C(C)=O)c3)C(=O)[C@@H]2C1,inactive
13,O=C(C1C2C(=O)N(C3CCCCCC3)C[C@@]23C=C[C@@H]1O3)N1CCS(=O)(=O)CC1 (stereo partly drawn),"inconclusive: 100 µM [inhibitor, single point]"
14,CC(C)n1cc(CN2CCCN(S(=O)(=O)c3ccccc3)CCC(=O)NCC2)c2ccccc21,"inconclusive: 44.7 µM [inhibitor, partial curve, poor fit]"
15,COc1ccc(-c2nc3cc(C)ccc3cc2CN2CCN(C(C)=O)CC2)cc1,"inconclusive: 50.1 µM [inhibitor, partial curve, poor fit]"
16,CC(C)CNC(=O)N1CCCC(c2noc(COc3ccccc3)n2)C1 (stereo not drawn),"inconclusive: 50.1 µM [inhibitor, partial curve, poor fit]"
17,CN1CCC2(C1)CN(CC1CC1)c1ccc(C(=O)NCC3CC3)cc12 (stereo not drawn),"inconclusive: 44.7 µM [inhibitor, full curve]"
18,CN1CCC(N2C[C@@H]3C[C@H]2C(=O)N(CC2CC2)c2ccccc2O3)CC1,inactive
19,CN1Cc2ccc(NCc3ccccc3)nc2C(C)(C(=O)Nc2ccccc2)C1 (stereo not drawn),active: 44.7 µM
20,Cc1ccc(C)c(-c2ccc(C(=O)NCCCn3ccnc3C(C)C)cn2)c1,"inconclusive: 44.7 µM [inhibitor, partial curve, poor fit]"

row,Compound,Potency
1,O=c1c2nc(-c3ccncc3)ccc2ncn1-c1ccccc1,"inconclusive: 89.1 µM [inhibitor, partial curve]"
2,COc1cc(OC)cc(C(=O)N2CCC[C@H]2c2nc(-c3ccccc3)no2)c1,"inconclusive: 50.1 µM [inhibitor, partial curve, poor fit]"
3,Cc1ccc2nc(C3CCCN(Cc4cccc(-c5ccc(F)cc5F)c4)C3)[nH]c(=O)c2c1 (stereo not drawn),"inconclusive: 50.1 µM [inhibitor, partial curve, poor fit]"
4,COc1ccc(CCC(=O)N2CCC(Cc3nncn3Cc3ccccc3)C2)cc1 (stereo not drawn),inactive
5,COc1cc(Cl)ccc1C(=O)N1CCN(c2cc(-c3cccs3)[nH]n2)CC1,"inconclusive: 12.6 µM [inhibitor, partial curve, poor fit]"
6,COc1ccc(C(=O)N2CCC(n3cc(-c4nc(-c5ccccc5)no4)nn3)CC2)cc1,"inconclusive: 22.4 µM [inhibitor, full curve, poor fit]"
7,C=CCOc1c(OC)ccc2c1CN(Cc1ccccc1)C(=O)CCN2CC(O)COCc1ccco1 (stereo not drawn),"inconclusive: 50.1 µM [inhibitor, partial curve, poor fit]"
8,Cc1noc(C)c1S(=O)(=O)N1CCC2(CC1)C(=O)N(C)c1ccccc12,inactive
9,COCc1ccc2c(c1)c(OC(C)(C)C(=O)NCc1cnccn1)nn2Cc1cccnc1,"inconclusive: 70.8 µM [inhibitor, single point]"
10,O=C(NCc1ccccn1)c1cccc2c1CCN2C(=O)C1CC1,"inconclusive: 70.8 µM [inhibitor, single point]"
11,CC(C)c1cc(NCc2csc(-c3ncccn3)n2)n2nccc2n1,"inconclusive: 31.6 µM [inhibitor, partial curve, poor fit]"
12,CC(C)(O)CCc1cccc(C(=O)NCCNc2cccnc2)c1,"inconclusive: 89.1 µM [inhibitor, partial curve, poor fit]"
13,CCC(CC)C(=O)NC[C@H]1O[C@H](Cc2cc(-c3ccc(F)cc3)on2)CC[C@@H]1O,"inconclusive: 79.4 µM [inhibitor, partial curve, poor fit]"
14,CSc1cccc(NC(=O)Cn2c(-c3ccc(F)cc3)nc(C)c(CCO)c2=O)c1,"inconclusive: 44.7 µM [inhibitor, partial curve, poor fit]"
15,Cc1ccc(NC(=O)Cn2c(-c3ccc(F)cc3)nc(C)cc2=O)c(Cl)c1,"inconclusive: 79.4 µM [inhibitor, partial curve, poor fit]"
16,COc1ncccc1-c1cc(-c2cn[nH]c2)c2cncn2c1,active: 70.8 µM
17,COc1ccccc1-c1cc(C(=O)NC2CC2)c2cnn(C)c2n1,"inconclusive: 50.1 µM [inhibitor, partial curve, poor fit]"
18,Cc1noc(C)c1-c1cn(CCNS(=O)(=O)c2ccc(Cl)cc2)nn1,inactive
